# In PubChem BioAssay (Tox21):
# “And” between values parts separate entries of the source, which are not always exact repeats. Identical values can stand only once. The shares of active, inactive and inconclusive entries below differ from those in the screen. A call without a number means that no potency is given here. For part of these data: Potencies beside an inconclusive call are fits to weak or partial responses and may not hold up. More than one record can exist for a structure, and the calls need not agree. The source made the active and inactive calls. Unless noted, the call rests on the fitted dose curve; in most records, active means well fitted curve in the direction sought with a large enough effect in the repeat runs; inconclusive means weak or mixed curves; inactive means no such curve, though single readings can be large; an effect the other way counts as inactive or inconclusive.
# Columns and labels:
# [1] = qHTS assay to identify small molecule agonists of the constitutive androstane receptor (CAR) signaling pathway - cell viability counter screen (AID 1224836); further: nearly all actives have a fitted effect of over 45% in size
# How it was run: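 Viability read-out: CellTiter-Fluor fluorescence after 23 h compound exposure at 37 C/5% CO2 in double-stable HepG2-CYP2B6-hCAR cells, with PK11195 present at 0.75 uM final; compounds tested in 15-point titration.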
# [2] = target: Luciferin 4-monooxygenase (Photinus pyralis) (UniProt P08659); experiment: qHTS assay to identify small molecule inhibitors of firefly luciferase (AID 1224835); further: potency means the concentration at half of the fitted maximal effect; nearly all actives have a fitted effect of over 25% in size
# UniProt P08659, sequence (P08659 whole entry, looked up): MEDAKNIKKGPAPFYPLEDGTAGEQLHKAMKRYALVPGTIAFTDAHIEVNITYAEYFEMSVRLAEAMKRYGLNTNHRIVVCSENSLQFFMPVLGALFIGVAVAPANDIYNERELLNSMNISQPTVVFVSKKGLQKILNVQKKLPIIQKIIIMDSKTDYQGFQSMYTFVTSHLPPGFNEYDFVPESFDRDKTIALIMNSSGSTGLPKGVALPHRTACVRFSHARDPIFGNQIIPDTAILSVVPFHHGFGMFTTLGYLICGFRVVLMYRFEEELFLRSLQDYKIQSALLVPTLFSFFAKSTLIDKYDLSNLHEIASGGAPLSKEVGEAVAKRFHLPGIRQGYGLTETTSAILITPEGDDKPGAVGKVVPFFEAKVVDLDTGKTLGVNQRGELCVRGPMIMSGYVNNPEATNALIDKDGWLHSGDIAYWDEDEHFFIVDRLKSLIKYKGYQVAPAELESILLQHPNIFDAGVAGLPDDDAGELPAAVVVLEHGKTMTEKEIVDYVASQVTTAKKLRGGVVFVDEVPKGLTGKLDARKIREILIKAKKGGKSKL
# How it was run: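 Quantitative HTS format; KM concentrations of both substrates. Purified P. pyralis FLuc activity quantified from luminescence images.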
# [3] = target: Nuclear receptor subfamily 1 group I member 3 (Homo sapiens) (UniProt Q14994); experiment: qHTS assay to identify small molecule agonists of the constitutive androstane receptor (CAR) signaling pathway (AID 1224839); further: nearly all actives have a fitted effect of over 15% in size; further: potency means the concentration at half of the fitted maximal effect
# UniProt Q14994, sequence (Q14994 whole entry, looked up): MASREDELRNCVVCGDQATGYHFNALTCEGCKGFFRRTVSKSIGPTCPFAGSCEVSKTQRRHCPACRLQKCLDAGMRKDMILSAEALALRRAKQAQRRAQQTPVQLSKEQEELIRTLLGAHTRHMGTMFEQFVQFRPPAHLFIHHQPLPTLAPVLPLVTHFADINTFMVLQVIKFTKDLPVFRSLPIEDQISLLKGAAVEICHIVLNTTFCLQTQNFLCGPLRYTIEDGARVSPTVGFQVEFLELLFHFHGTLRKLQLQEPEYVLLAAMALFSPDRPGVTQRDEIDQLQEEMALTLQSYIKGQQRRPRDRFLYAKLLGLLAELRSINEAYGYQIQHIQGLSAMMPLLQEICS
# How it was run: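 Luminescence read-out (ONE-Glo, 30 min, room temperature) from double-stable HepG2-CYP2B6-hCAR cells exposed 24 h to 15-point compound series in presence of 0.75 uM PK11195 final.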
# [4] = target: Nuclear receptor subfamily 1 group I member 3 (Homo sapiens) (UniProt Q14994); experiment: qHTS assay to identify small molecule antagonists of the constitutive androstane receptor (CAR) signaling pathway (AID 1224838); further: nearly all actives have a fitted effect of over 40% in size; further: potency means the concentration at half of the fitted maximal effect
# How it was run: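 Inhibition of CITCO-driven (50 nM final) CYP2B6 reporter expression is measured in HepG2 cells stably carrying hCAR. Fifteen compound concentrations are applied for 24 h at 37 C, followed by luciferase luminescence.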
# [5] = qHTS assay to identify small molecule agonists of the hypoxia (HIF-1) signaling pathway - cell viability counter screen (AID 1224844; calls by dose curve; further: nearly all actives have a fitted effect of over 50% in size; further: potency means the concentration at half of the fitted maximal effect)
# How it was run: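 In this counter screen, HRE-bla ME-180 cell viability after 17 hrs of compound exposure at 37C was read by CellTiter-Glo luminescence, multiplexed with the beta-lactamase reporter measurement.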
# [6] = qHTS assay to identify small molecule antagonists of the constitutive androstane receptor (CAR) signaling pathway - cell viability counter screen (AID 1224837); further: nearly all actives have a fitted effect of over 45% in size; further: potency means the concentration at half of the fitted maximal effect
# How it was run: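 CITCO at 50 nM final was added alongside compounds (15 concentrations) to double-stable hCAR/CYP2B6-2.2kb HepG2 cells. Following 23 hr at 37 C, cell viability was quantified by CellTiter-Fluor fluorescence intensity.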
# [7] = qHTS assay to identify small molecule antagonists of the estrogen related receptor signaling pathway with the pleiotropic PPARgamma coactivator (PGC) from Tox21 10K library - cell viability counter screen (AID 1224840; active means well fitted cell-killing curve with a large enough effect in the repeat runs, not every such curve was filed as active; inconclusive means weak or mixed curves, or effect the other way; inactive means no such curve, though single readings can be large or run the other way; further: nearly all actives have a fitted effect of over 40% in size; further: potency means the concentration at half of the fitted maximal effect)
# How it was run: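 Readout: fluorescence intensity from CellTiter-Fluor after 30 min at 37 C/5% CO2. Preceded by 17.5 h treatment of PGC/ERR cells with DMSO-dissolved compounds, added 6 h post-seeding.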
# [8] = target: Thyrotropin receptor (Homo sapiens) (UniProt P16473); experiment: qHTS assay to identify small molecule agonists of the thyroid stimulating hormone receptor (TSHR) signaling pathway (AID 1224843; calls by dose curve; further: nearly all actives have a fitted effect of over 45% in size; further: potency means the concentration at half of the fitted maximal effect); settings: TSHR-HEK293 cells, cAMP HTRF, agonist mode, 30 min; activation: at 92.4 µM (top of the series) unless noted
# UniProt P16473, sequence (P16473 whole entry, looked up): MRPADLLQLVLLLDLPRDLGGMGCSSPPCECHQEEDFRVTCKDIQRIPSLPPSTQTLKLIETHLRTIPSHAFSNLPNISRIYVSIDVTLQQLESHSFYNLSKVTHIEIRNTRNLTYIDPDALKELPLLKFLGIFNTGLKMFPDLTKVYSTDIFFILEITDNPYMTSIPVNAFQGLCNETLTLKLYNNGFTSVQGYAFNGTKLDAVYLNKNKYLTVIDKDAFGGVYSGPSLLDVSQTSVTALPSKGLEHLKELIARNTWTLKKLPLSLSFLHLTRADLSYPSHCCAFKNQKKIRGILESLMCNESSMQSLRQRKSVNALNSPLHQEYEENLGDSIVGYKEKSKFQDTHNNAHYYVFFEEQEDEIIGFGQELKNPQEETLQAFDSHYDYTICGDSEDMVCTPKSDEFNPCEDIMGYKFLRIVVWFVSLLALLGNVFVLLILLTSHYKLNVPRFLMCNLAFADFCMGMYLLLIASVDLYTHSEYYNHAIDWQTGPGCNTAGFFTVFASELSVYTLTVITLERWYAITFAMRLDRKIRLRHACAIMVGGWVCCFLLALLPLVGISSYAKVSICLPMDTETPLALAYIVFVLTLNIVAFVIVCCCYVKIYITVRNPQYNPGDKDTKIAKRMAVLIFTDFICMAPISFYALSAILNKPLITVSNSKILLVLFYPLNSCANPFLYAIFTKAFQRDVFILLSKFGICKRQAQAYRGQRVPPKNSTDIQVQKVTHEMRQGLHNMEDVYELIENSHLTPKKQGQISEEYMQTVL
# How it was run: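 Using 15 concentrations per compound in triplicate, cAMP production was monitored in TSHR-HEK293 cells after 30 min compound incubation at RT; HTRF reagents followed, with fluorescence intensity recorded after 1 h.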
# [9] = qHTS assay to identify small molecule antagonists of the estrogen related receptor signaling pathway with the pleiotropic PPARgamma coactivator (PGC) from Tox21 10K library (AID 1224841; call rule not given here; further: potency means the concentration at half of the fitted maximal effect; actives are mostly falling curves and most rising ones were filed inactive; nearly all actives have a fitted effect of over 50% in size)
# How it was run: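 One-Glo luminescence, measured after half an hour at room temperature, quantified reporter output of PGC/ERR cells. These had been plated at 2,000 per well, incubated 6 h, dosed with compounds in DMSO, then kept 18 h at 37 C.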
# Tags describe the fitted curve by direction and shape or compound fluorescence and quenching.
smiles,measurement,setting,value
Cc1ccccc1N=C(N)Nc1ccccc1C,Potency,[1],inactive
Cc1ncc(CO)c(CO)c1O,Potency,[1],inactive
O=C(O)Cc1cc(I)c(Oc2cc(I)c(O)c(I)c2)c(I)c1,Potency,[2],inconclusive: 62 µM [inhibitor]
same,Potency,[3],inactive
NC(=O)c1ccccc1O,Potency,[1],inactive
CN1CCN(N)CC1,Potency,[4],inactive
CCc1cc(C(C)(C)C)c(O)c(C(C)(C)C)c1,Potency,[4],"inconclusive: 13.7 µM [inhibitor, full curve]"
same,Potency,[3],active: 12.2 µM
same,Potency,[5],"inconclusive: 55.5 µM [cytotoxic, single point]"
CNC(=O)c1cc(Oc2ccc(NC(=O)Nc3ccc(Cl)c(C(F)(F)F)c3)cc2)ccn1,Potency,[6],"inconclusive: 33.5 µM [cytotoxic, single point]"
same,Potency,[4],"inconclusive: 33.5 µM [inhibitor, single point]"
same,Potency,[7],"inconclusive: 33.5 µM [cytotoxic, single point]"
Fc1ccccc1,Potency,[6],inactive
CC(C)(C)C(=O)OCOC(=O)C1N2C(=O)CC2S(=O)(=O)C1(C)C (centres undefined),Potency,[6],inactive
CCCNC(C)C(=O)Nc1ccccc1C (centres undefined),Potency,[4],inactive
same,Potency,[3],inactive
CCC(N)(CO)CO,Potency,[4],inactive
COC(CC(C)CCCC(C)(C)O)OC (centres undefined),Potency,[6],inactive
Cc1oc(=O)oc1COC(=O)[C@@H]1N2C(=O)[C@@H](NC(=O)[C@H](N)c3ccccc3)[C@H]2SC1(C)C,Potency,[6],inactive
Nc1nc2ccccc2[nH]1,Potency,[6],inactive
same,Potency,[5],inactive
Cc1ccsc1/C=C/C1=NCCCN1C,Potency,[4],inactive
CCCCOc1ccc(OCCCN2CCOCC2)cc1,Potency,[4],inactive
same,Potency,[3],"inconclusive: 26.6 µM [activator, partial curve]"
CN(Cc1cnc2nc(N)nc(N)c2n1)c1ccc(C(=O)N[C@@H](CCC(=O)O)C(=O)O)cc1,Potency,[6],"inconclusive: 0.077 µM [cytotoxic, full curve, poor fit]"
same,Potency,[7],"inconclusive: 0.0433 µM [cytotoxic, full curve, poor fit]"
same,Potency,[5],inactive
C#C[C@]1(O)CC[C@H]2[C@@H]3CCC4=Cc5oncc5C[C@]4(C)[C@H]3CC[C@@]21C,Potency,[4],"inconclusive: 24.3 µM [inhibitor, single point]"
same,Potency,[7],active: 48.6 µM
same,Potency,[8],"inconclusive: 8.63 µM [activator, full curve] and inconclusive: 26.6 µM [activator, partial curve]"
same,Potency,[5],"inconclusive: 54.9 µM [cytotoxic, single point]"
Cc1ccc2c(Br)cc(Br)c(O)c2n1,Potency,[4],inactive
same,Potency,[7],"inconclusive: 13.3 µM [cytotoxic, partial curve, poor fit]"
same,Potency,[9],"inconclusive: 23.7 µM [falling, partial curve, poor fit]"
same,Potency,[5],"inconclusive: 26.8 µM [rising, single point]"
CN1C(CSCC(F)(F)F)Nc2cc(Cl)c(S(N)(=O)=O)cc2S1(=O)=O (centres undefined),Potency,[6],inactive
same,Potency,[9],"inconclusive: 33.5 µM [falling, partial curve, poor fit]"
CC(CO)CO,Potency,[4],inactive
same,Potency,[7],inactive
same,Potency,[5],inactive
O=C(O)c1ccc(-n2nc(-c3ccccc3O)nc2-c2ccccc2O)cc1,Potency,[4],"inconclusive: 6.68 µM [inhibitor, full curve]"
O=C(CCCN1CC=C(n2c(=O)[nH]c3ccccc32)CC1)c1ccc(F)cc1,Potency,[6],"inconclusive: 33.5 µM [cytotoxic, partial curve, poor fit]"
NCc1ccc(S(N)(=O)=O)cc1,Potency,[4],inactive
Cn1c(N)nc2nc[nH]c2c1=O,Potency,[4],active: 48 µM
CC(=O)NC1(c2cccc(F)c2)CCN(CC[C@@]2(c3ccc(Cl)c(Cl)c3)CN(c3ccccc3)C(=O)CO2)CC1,Potency,[4],"inconclusive: 61.3 µM [inhibitor, single point]"
same,Potency,[7],active: 43.4 µM
CN(C)CCOc1ccccc1Cc1ccccc1,Potency,[6],inactive
same,Potency,[3],"inconclusive: 23.7 µM [activator, partial curve, poor fit]"
same,activation,[8],inconclusive: -2.55% [at 42.5 µM]
same,Potency,[5],inactive
COc1cc(C)nc(-n2nc(C)cc2OC)n1,Potency,[4],"inconclusive: 23.7 µM [inhibitor, partial curve]"
CC(=O)OCC(COC(C)=O)OC(C)=O,Potency,[6],inactive
CCN(Cc1ccncc1)C(=O)C(CO)c1ccccc1 (centres undefined),Potency,[4],inactive
O=C(O)CCNC(=O)c1ccccc1,Potency,[4],"inconclusive: 29.8 µM [inhibitor, single point]"
CCC1CO1 (centres undefined),Potency,[6],inactive
Cc1ccc(N/N=c2\c(=O)cc/c(=N\Nc3ccc(S(=O)(=O)O)cc3)c2=O)c(C)c1,Potency,[6],active: 48.6 µM
same,Potency,[9],"inconclusive: 13.7 µM [falling, partial curve]"
C=CCNc1nc(NCC=C)nc(N2CCN(C(c3ccc(F)cc3)c3ccc(F)cc3)CC2)n1,Potency,[6],inactive
same,Potency,[8],inactive
Cc1cc(C)c(NC(=O)CN(CC(=O)O)CC(=O)O)c(C)c1Br,Potency,[4],"inconclusive: 2.66 µM [inhibitor, full curve]"
Nc1ccccc1O,Potency,[6],"inconclusive: 67.7 µM [cytotoxic, single point]"
same,Potency,[7],"inconclusive: 17 µM [cytotoxic, full curve]"
same,Potency,[9],"inconclusive: 6.77 µM [falling, partial curve]"
same,Potency,[5],"inconclusive: 60.8 µM [cytotoxic, single point]"
C[Si]1(C)O[Si](C)(C)O[Si](C)(C)O[Si](C)(C)O[Si](C)(C)O1,Potency,[4],inactive
CC(O)c1ccccc1 (centres undefined),Potency,[6],inactive
Cc1cc(O)c(C)c(C)c1O,Potency,[4],"inconclusive: 2.37 µM [inhibitor, full curve, poor fit]"
same,Potency,[9],"inconclusive: 4.73 µM [falling, partial curve, poor fit]"
O=c1[nH]c(=O)n([C@H]2CCCO2)cc1F,Potency,[6],inactive
C[C@]12C=CC(=O)C=C1CC[C@@H]1[C@@H]2C(=O)C[C@@]2(C)[C@H]1CC[C@]2(O)C(=O)CO,Potency,[4],"inconclusive: 13.3 µM [inhibitor, partial curve, poor fit]"
CC(C)CCCCCCCOC(=O)CCCCC(=O)OCCCCCCCC(C)C,Potency,[4],"inconclusive: 56.6 µM [inhibitor, partial curve, poor fit]"
same,Potency,[7],inactive
CCOc1ccccc1C(N)=O,Potency,[4],inactive
same,Potency,[3],"inconclusive: 54.5 µM [activator, partial curve, poor fit]"
same,Potency,[5],"inconclusive: 2.68 µM [rising, full curve]"
CCc1cccc(O)c1,Potency,[4],inactive
same,Potency,[5],inactive
O=C1OC(=O)c2c(Br)c(Br)c(Br)c(Br)c21,Potency,[3],inactive
Cc1cccc([N+](=O)[O-])c1C,Potency,[3],inactive
CCN(CCC#N)c1ccccc1,Potency,[3],"inconclusive: 54.5 µM [activator, partial curve, poor fit]"
CCCCCCCCCCCC(=O)OC,Potency,[3],inactive
O=C1c2ccccc2C(=O)N1CCc1noc(-c2ccc(CN3CCCCCC3)s2)n1,Potency,[7],"inconclusive: 62.9 µM [cytotoxic, single point]"
CCN(CC)CCOc1ccc(Cc2ccccc2)cc1,Potency,[7],inactive
CCC(O)C(C)(C)C (centres undefined),Potency,[7],inactive
